Reference: paper PMC12820563
The list shows a part of the results. The list includes weakly bound sequences.

What follows are sequences tested against T1, MBP-FoxP3dN (UniProt Q99JB6) (assay: PD-seq (MBP pull-down with sequencing)). Details: 20 mM Tris-HCl pH 7.5, 100 mM NaCl, 1.5 mM MgCl2, 0.4 uM protein, 0.1 uM dsDNA library, 30 min, room temperature, amylose pull-down; high values mean tight binding; double strand, one strand shown.
T1 sequence: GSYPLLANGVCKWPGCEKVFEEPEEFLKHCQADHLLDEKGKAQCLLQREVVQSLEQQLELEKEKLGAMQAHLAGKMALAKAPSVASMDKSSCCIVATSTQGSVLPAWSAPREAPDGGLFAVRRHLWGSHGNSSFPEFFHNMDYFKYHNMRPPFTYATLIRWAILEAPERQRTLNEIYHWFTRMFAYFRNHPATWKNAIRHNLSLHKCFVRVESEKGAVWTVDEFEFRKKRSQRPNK
“GATGATTGTTCTCCCAGCTGATGAATTTGTTGGGTCGAGTAAACAAATTTTCCTAATCTTTCTGTTCAAGCGCCATCTAC” showed a binding signal (RPM ratio (pull-down/input)) of 7.61.
In the case of “GATGATTGTTCTCCCAGCTGATGAATTAGTGTAGTCGAGTAAACAAATTTTCCTAATCTTTCTGTTCAAGCGCCATCTAC”, the binding signal (RPM ratio (pull-down/input)) is reported as 2.04.
In the case of “GATGATTGTTCTCCCAGCTGATGAATTTACTCAATCGAGTAAACAAATTTTCCTAATCTTTCTGTTCAAGCGCCATCTAC”, the binding signal (RPM ratio (pull-down/input)) is reported as 0.346.
With “GATGATTGTTCTCCCAGCTGATGAATTCCGTGATTCGAGTAAACAAATTTTCCTAATCTTTCTGTTCAAGCGCCATCTAC” the binding signal (RPM ratio (pull-down/input)) was 0.914.
“GATGATTGTTCTCCCAGCTGATGAATTACCCTAATCGAGTAAACAAATTTTCCTAATCTTTCTGTTCAAGCGCCATCTAC” was tested, and the binding signal (RPM ratio (pull-down/input)) was 0.289.
Sequence “GATGATTGTTCTCCCAGCTGATGAATTCGGTCCTTCGAGTAAACAAATTTTCCTAATCTTTCTGTTCAAGCGCCATCTAC” has a binding signal (RPM ratio (pull-down/input)) of 0.363.
“GATGATTGTTCTCCCAGCTGATGAATTTGCCCGATCGAGTAAACAAATTTTCCTAATCTTTCTGTTCAAGCGCCATCTAC” showed a binding signal (RPM ratio (pull-down/input)) of 0.274.
“GATGATTGTTCTCCCAGCTGATGAATTTCAAGCATCGAGTAAACAAATTTTCCTAATCTTTCTGTTCAAGCGCCATCTAC” was tested, and the binding signal (RPM ratio (pull-down/input)) was 0.69.
For “GATGATTGTTCTCCCAGCTGATGAATTTGTTAGCTCGAGTAAACAAATTTTCCTAATCTTTCTGTTCAAGCGCCATCTAC”, the binding signal (RPM ratio (pull-down/input)) was 6.55.
“GATGATTGTTCTCCCAGCTGATGAATTAATCCACTCGAGTAAACAAATTTTCCTAATCTTTCTGTTCAAGCGCCATCTAC” showed a binding signal (RPM ratio (pull-down/input)) of 0.364.
In the case of “GATGATTGTTCTCCCAGCTGATGAATTTGAAGAATCGAGTAAACAAATTTTCCTAATCTTTCTGTTCAAGCGCCATCTAC”, the binding signal (RPM ratio (pull-down/input)) is reported as 0.169.
“GATGATTGTTCTCCCAGCTGATGAATTGTTCACATCGAGTAAACAAATTTTCCTAATCTTTCTGTTCAAGCGCCATCTAC” was tested, and the binding signal (RPM ratio (pull-down/input)) was 0.635.
For “GATGATTGTTCTCCCAGCTGATGAATTTGTACTCTCGAGTAAACAAATTTTCCTAATCTTTCTGTTCAAGCGCCATCTAC”, the binding signal (RPM ratio (pull-down/input)) was 2.81.
Work on “GATGATTGTTCTCCCAGCTGATGAATTCCACCTATCGAGTAAACAAATTTTCCTAATCTTTCTGTTCAAGCGCCATCTAC” yielded a binding signal (RPM ratio (pull-down/input)) of 0.432.
“GATGATTGTTCTCCCAGCTGATGAATTGTGCGTCTCGAGTAAACAAATTTTCCTAATCTTTCTGTTCAAGCGCCATCTAC” showed a binding signal (RPM ratio (pull-down/input)) of 6.12.
For “GATGATTGTTCTCCCAGCTGATGAATTTAGCCACTCGAGTAAACAAATTTTCCTAATCTTTCTGTTCAAGCGCCATCTAC”, the binding signal (RPM ratio (pull-down/input)) was 5.21.
Work on “GATGATTGTTCTCCCAGCTGATGAATTCCATAACTCGAGTAAACAAATTTTCCTAATCTTTCTGTTCAAGCGCCATCTAC” yielded a binding signal (RPM ratio (pull-down/input)) of 0.339.
“GATGATTGTTCTCCCAGCTGATGAATTAGTTAATTCGAGTAAACAAATTTTCCTAATCTTTCTGTTCAAGCGCCATCTAC” showed a binding signal (RPM ratio (pull-down/input)) of 0.745.
“GATGATTGTTCTCCCAGCTGATGAATTGGCTAAATCGAGTAAACAAATTTTCCTAATCTTTCTGTTCAAGCGCCATCTAC” gave a binding signal (RPM ratio (pull-down/input)) of 0.25.
“GATGATTGTTCTCCCAGCTGATGAATTCGAACCGTCGAGTAAACAAATTTTCCTAATCTTTCTGTTCAAGCGCCATCTAC” showed a binding signal (RPM ratio (pull-down/input)) of 0.228.
In the case of “GATGATTGTTCTCCCAGCTGATGAATTATGCCGCTCGAGTAAACAAATTTTCCTAATCTTTCTGTTCAAGCGCCATCTAC”, the binding signal (RPM ratio (pull-down/input)) is reported as 2.88.
For “GATGATTGTTCTCCCAGCTGATGAATTTGTAACATCGAGTAAACAAATTTTCCTAATCTTTCTGTTCAAGCGCCATCTAC”, the binding signal (RPM ratio (pull-down/input)) was 1.81.
“GATGATTGTTCTCCCAGCTGATGAATTTATGATTTCGAGTAAACAAATTTTCCTAATCTTTCTGTTCAAGCGCCATCTAC” showed a binding signal (RPM ratio (pull-down/input)) of 3.51.
“GATGATTGTTCTCCCAGCTGATGAATTGGAGCATTCGAGTAAACAAATTTTCCTAATCTTTCTGTTCAAGCGCCATCTAC” gave a binding signal (RPM ratio (pull-down/input)) of 4.46.
“GATGATTGTTCTCCCAGCTGATGAATTACACACCTCGAGTAAACAAATTTTCCTAATCTTTCTGTTCAAGCGCCATCTAC” was tested, and the binding signal (RPM ratio (pull-down/input)) was 0.652.
In the case of “GATGATTGTTCTCCCAGCTGATGAATTACATGGGTCGAGTAAACAAATTTTCCTAATCTTTCTGTTCAAGCGCCATCTAC”, the binding signal (RPM ratio (pull-down/input)) is reported as 0.388.
“GATGATTGTTCTCCCAGCTGATGAATTCACCGCTTCGAGTAAACAAATTTTCCTAATCTTTCTGTTCAAGCGCCATCTAC” gave a binding signal (RPM ratio (pull-down/input)) of 0.331.
With “GATGATTGTTCTCCCAGCTGATGAATTTGGACTTTCGAGTAAACAAATTTTCCTAATCTTTCTGTTCAAGCGCCATCTAC” the binding signal (RPM ratio (pull-down/input)) was 1.19.
In the case of “GATGATTGTTCTCCCAGCTGATGAATTCGCTTCCTCGAGTAAACAAATTTTCCTAATCTTTCTGTTCAAGCGCCATCTAC”, the binding signal (RPM ratio (pull-down/input)) is reported as 0.784.
In the case of “GATGATTGTTCTCCCAGCTGATGAATTGGTTAAGTCGAGTAAACAAATTTTCCTAATCTTTCTGTTCAAGCGCCATCTAC”, the binding signal (RPM ratio (pull-down/input)) is reported as 0.315.
For “GATGATTGTTCTCCCAGCTGATGAATTCCACTACTCGAGTAAACAAATTTTCCTAATCTTTCTGTTCAAGCGCCATCTAC”, the binding signal (RPM ratio (pull-down/input)) was 0.367.
“GATGATTGTTCTCCCAGCTGATGAATTTCGTTAATCGAGTAAACAAATTTTCCTAATCTTTCTGTTCAAGCGCCATCTAC” was tested, and the binding signal (RPM ratio (pull-down/input)) was 0.405.
